From the supplement of paper PMC12632987
In all, about 4,500 sequences were measured (“median log2 fold change of GCK-ALFA target abundance (FLAG IP / Myc IP barcode read proportion)”: median about 0.078, lowest 2% from about -0.6 on). The list shows a part of the results.

B1: GBRAP_184_5194 (protein)
chain: KVLEYEIKAENLEELKEKLKELYEKAKKEKADIYIIVDLKNATKEKIEALMNMLKEIKEKGYAKNIYVLVTGNLTEEQIDLIIKKADEAGVKVTLALDEE
B2: GBRAP_11_2687 (protein)
chain: KKEKLEEGAKLAEELAKLIEELLKEGVDNEKLLKELEKKLKELEKLTKEYADKASQKLTEDIKETWEEMLKDPEKAEEYAKEMLAGARVLAGDYLLEIEE
B3: GBRAP_14_3844 (protein)
chain: SEELRKLLLEAVRETVEALRELAPEEYEEKVEEFRERLEKAVEEVLKLGNLEEAERRLIEVAEETVEELFADLPEEERAALRAEAVNTLALKFEEIEEKL
B4: GBRAP_160_4090 (protein)
chain: MEKVKKLIKEIKEEAERAMKMIEGETIEQRAIIVRGLGGDVIMLLFESGVVSEETEDFADEKFDALVETILANPDLTEEEIKALLKEVVEEIIEKIEEEA
B5: GBRAP_11_2920 (protein)
chain: EKEKKKEIAKLAEEAAELVERLIEEGVDNEELLKELEKKIKELKELVEEYGDEADKKEVEIIEELWEEALADPENREEYLKQLRAALLVLSGNYLLELEE
B6: GBRAP_128_3426 (protein)
chain: STEELVARVEELLEAMLTADDEEAAALADEIMELLLAADLATVEAMVEVILAMLPKLTAEKLDILADAFRRHRPLFSPEKQELVAEVEVEALNEAEELEE
B7: GBRAP_160_4499 (protein)
chain: SETLEKAKKEIEEEAELAIEAASEVSDEDAVKIVEAYFGDIAVYLEEEAKLSEENIDKVMEKADEVVAELKAIPKLTPEQIREAVERFKEEAIAILEEEA
B8: GBRAP_160_4836 (protein)
chain: SEKEKKVKEKLEEARDFVLSLVDEVSVDDLANFYDSEVGSVLLELYEEGYINEEAEDKGMELRDEGVAALRAAADASPEELRALIDESIERIEKAILELL
B9: GBRAP_14_3857 (protein)
chain: MEELIKAIKEAAEETIKFAKELLPEHAEEISAKIKELAEEAIKKVKEENLNKEEVAELADEMAEKLGKYIKEKGYANEEEIAALRAHLINEVLLELEKVE
B10: GBRAP_166_4907 (protein)
chain: MKEEKIKKLIEEAKKLIEELKTADEEEALELLIEIGEVLKELKELGASEEEILKLVKETLEAVKEKGFSVKVAAGIIANEADFDEEEIEKLDEIAKEVEE
B11: GBRAP_26_5446 (protein)
chain: IEEEIDALEDELEALIDELLPPELAGPAKAVLLTLLEELEEELEKNIDDEEKQEELVKEFLEELRKELLELGVPEEHVEKIVKAAEEGLEKILKAIKEKK
B12: GBRAP_39_5642 (protein)
chain: EEEEENELIFSYLLAVGAKIQYEKGWSYEEVKKETLELLDELAKKYPEIKELLEELKELVEKGDEETVLAAYGLVKLAKEGTPVEEVKENAEKLIKYLKS
B13: GBRAP_52_5966 (protein)
chain: MKEKAEKAVKEAIALEKAGDREGLRALLREIARTWNDEELEELAKALAKAAKEGDEETAEIALEVAILLADVLEEEGRDPRLAADLLGLVATAAYEKELE
B14: GBRAP_160_4356 (protein)
chain: MEKTEKLIKEIKEATEEVIKEVDKLSREEVGTIAAGLYGEIAMEAVEDESMSDEVEDIIVEARDEILKLLKEMKDASREEIKKKIKEITEKAIEKIKEAS
B15: GBRAP_166_4980 (protein)
chain: DQEKKVEALKKLIKERAEKAKEADYEEKLELLAEVAEEIKKAKEEGLSKENLKELIKFTLKEFSKVGIKLSDVFGALSIIADLDEEEIELLLEAEKEVRA
B16: GBRAP_160_4256 (protein)
chain: SEKVEEIAKELREEMEEIIEEAAELTPEELAAAIAGAIGSAIMELIELGLITEEQEDKLIEIEDEAVATALRKAELSLEELKARLKELLEEFLKVLEEAK
B17: GBRAP_139_3754 (protein)
chain: DATAAAAAEMAAAVADPSTTLEEIEALFRKIVAELDEEGIKEVIKAMAKALVTKPVETIEEIEEMVLKILKEAGKSEDVQDFAEAEFNGAAALSAAREEA
B18: GBRAP_160_4425 (protein)
chain: SPTVERVAEILDETEELVLEEVEEGRWENALTAARVGAGEVLLEVDSDPRVSEEAEEKVAAILDATVATLAANPDATPEEVRALLRETRAAVVETLEADL
B19: GBRAP_14_3872 (protein)
chain: KEEALAIALEEIEEMAELLIEAIPEKKEEIEKMKERLVAAAEEFFTSLEDPEEAAEALEAKANAEIAEFTKTLSPEDAALAKAIAGTELGNLRLEIDELL

target: GABARAP, O95166; assay: median log2 fold change of GCK-ALFA target abundance (FLAG IP / Myc IP barcode read proportion) (log2 ratio); each designed protein is fused to an ALFA-tag nanobody in HEK293 cells to bring the named protein to FLAG-tagged glucokinase (GCK); Myc marks an untargeted standard; higher = target protein stabilised (more abundant); details: target protein: 3xFLAG-MCP-GCK-ALFA reporter; HEK293 landing pad (RPLP)
Sequence (O95166 whole entry, the tested form may be a part): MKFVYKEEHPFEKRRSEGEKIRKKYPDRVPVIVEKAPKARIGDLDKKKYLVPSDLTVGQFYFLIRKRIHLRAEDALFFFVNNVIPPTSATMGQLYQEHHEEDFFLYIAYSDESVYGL
Outline: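 Sequencing of reverse-transcribed, amplified circular RNA barcodes from anti-FLAG and anti-Myc immunoprecipitates provided the readout for an ALFA-nanobody-fused binder library recombined into HEK293 landing-pad cells. Those cells were induced with 2 μg mL^−1 doxycycline, transfected with a plasmid expressing a FLAG-tagged target and a Myc-tagged standard, and lysed after 48 h. Target abundance is the per-binder median log2 ratio of FLAG to Myc barcode read proportions. Only barcodes at a proportion of ≥10^−7 in both replicates and binders with ≥3 barcodes per replicate were kept, with a 10^−6 pseudocount added before the two replicates were pooled.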

First: B1
Second: B2
The “median log2 fold change” value of the first is lower: -0.212 for the first, 0.232 for the second.

Going from B3 to B4, the “median log2 fold change” value falls from 0.208 to -0.277.

B5 and B6 are within 0.2 log units of each other in “median log2 fold change” value: 0.137 for the first, 0.232 for the second.

B7 and B8 are within 0.2 log units of each other in “median log2 fold change” value: 0.283 for the first, 0.12 for the second.

B9 and B10 are within 0.2 log units of each other in “median log2 fold change” value: 0.158 for the first, 0.294 for the second.

Compared with B11, B12 is lower in “median log2 fold change” value: 0.147 for the first, -0.188 for the second.

First: B13
Second: B14
The “median log2 fold change” value of the first is lower: -0.188 for the first, 0.156 for the second.

Compared with B15, B16 is lower in “median log2 fold change” value: 0.183 for the first, -0.154 for the second.

Compared with B17, B18 is lower in “median log2 fold change” value: 0.287 for the first, -0.375 for the second.

For B19, the “median log2 fold change” value was -0.23.
